Assay results reported in publication PMC11995724, “Antibiotic target discovery by integrated phenotypic and activity-based profiling of electrophilic fragments” (Cell chemical biology, 2025).
The whole screen tested about 3,200 compounds, of which about 75 (2%) showed an effect of 50% or more. Some of the results follow.

Test system: T1, S. aureus MSSA476
T1 construct: MSSA476
Set-up: species or system S. aureus MSSA476 (TSB) or V. cholerae SAD30 (LB); 384-well bacterial growth screen at 25 uM, OD600 relative to DMSO control
Settings: relative growth, OD600, TSB; 25 µM; inhibitor

SMILES	% of control remaining [%]
C=CC(=O)N1C[C@H](NC(C)=O)[C@@H](c2ccnn2C)C1 (racemic) [2-M16, rac-N-[(3R,4S)-4-(1-methyl-1H-pyrazol-5-yl)-1-(prop-2-enoyl)pyrrolidin-3-yl]acetamide]	90.5135
Cc1cccc(C=C(C#N)C(=O)NC2CCCCC2)c1 [8-K07, 2-cyano-N-cyclohexyl-3-(3-methylphenyl)prop-2-enamide]	103.568
C=CC(=O)N1CCC(C(=O)N2CCCC2COC)CC1 (stereo not drawn) [2-E12, 1-{4-[2-(methoxymethyl)pyrrolidine-1-carbonyl]piperidin-1-yl}prop-2-en-1-one]	120.104
C=CC(=O)N(CC)CC(=O)NC1CCN(C(C)=O)c2ccccc21 (stereo not drawn) [2-N06, N-{[(1-acetyl-1,2,3,4-tetrahydroquinolin-4-yl)carbamoyl]methyl}-N-ethylprop-2-enamide]	128.46
Cc1ncccc1OCC1CCCN1C(=O)C(C)Cl (stereo not drawn) [7-C18, 2-chloro-1-(2-{[(2-methylpyridin-3-yl)oxy]methyl}pyrrolidin-1-yl)propan-1-one]	104.239
N#CC(=Cc1ccc(C#N)cc1)C(=O)Nc1cccc(Cl)c1Cl [8-J05, 2-cyano-3-(4-cyanophenyl)-N-(2,3-dichlorophenyl)prop-2-enamide]	125.477
C=CC(=O)Nc1cc(C(=O)O)ccc1O [1-A12, 4-hydroxy-3-(prop-2-enamido)benzoic acid]	127.648
C=CC(=O)Nc1ccc(C(=O)N2CCCCC2CS(C)(=O)=O)cc1 (stereo not drawn) [2-N18, N-{4-[2-(methanesulfonylmethyl)piperidine-1-carbonyl]phenyl}prop-2-enamide]	110.357
C=CC(=O)N(C)Cc1cn(C)nc1C(C)C [3-F15, N-methyl-N-{[1-methyl-3-(propan-2-yl)-1H-pyrazol-4-yl]methyl}prop-2-enamide]	119.808
C=CC(=O)N(Cc1c(C)nn(CC)c1C)c1ccc2c(c1)COC2 [2-G13, N-(1,3-dihydro-2-benzofuran-5-yl)-N-[(1-ethyl-3,5-dimethyl-1H-pyrazol-4-yl)methyl]prop-2-enamide]	106.179
C=CC(=O)NCc1coc(-c2cccs2)n1 [1-C07, N-{[2-(thiophen-2-yl)-1,3-oxazol-4-yl]methyl}prop-2-enamide]	96
N#CC(=Cc1ccc(C#N)cc1)C(=O)N1CCCC1 [9-P21, 4-[2-cyano-2-(pyrrolidine-1-carbonyl)eth-1-en-1-yl]benzonitrile]	91.6854
